# Reference: PubChem BioAssay AID463173 (ICCB-Longwood Screening Facility, Harvard Medical School, 2010)
# In all, about 52,000 compounds went through this assay and about 4,300 (8.3%) were called active. Rule as the data show it: active = survival mostly below about 52% (no sharp cut-off); inactive = mostly above about 56%. The list shows a part of the results.
# Test system: DeltatarO mutant
# Test: growth inhibition of S. aureus wild type versus tarO mutant, primary screen, teichoic acid synthesis inhibitors, RN4220, OD600 (AID 463173)
# Details: OD600, 18 h, active compounds read low, screened at 18.75 µg/mL (by protocol)
row,Structure (SMILES),survival
1,Cc1c(C)n(Cc2ccc(F)cc2)c2ccc(C(=O)N3CCN(c4ccc(F)cc4)CC3)cc12,inactive: 83%
2,CCC(C(=O)NCCc1ccccc1)n1nc(C)c2sc3ccccc3c2c1=O (configuration not stated),inactive: 71%
3,CN1CCc2c(sc(N)c2C(=O)O)C1,inactive: 80%
4,O=C(O)CC1OC(=O)c2ccccc21 (configuration not stated),inactive: 55%
5,O=C(C1CCN(c2ncnc3c2nc2n3CCCCC2)CC1)N1CCN(c2ccccc2F)CC1,inactive: 86%
6,O=C(COc1ccc(F)cc1)NCCCn1ccnc1,inactive: 96%
7,CCSc1ncc(Cl)c(C(=O)Nc2nnc(CC)s2)n1,inactive: 72%
8,O=C(c1ccccc1F)N1c2ncnn2C2(CCCCC2)[C@@H]2CCCC[C@@H]21,inactive: 109%
9,Cc1cccc(Nc2nc(N)nc(N)c2S(=O)(=O)c2ccccc2)c1,inactive: 68%
10,CC1CCc2c(cc(-c3ccccc3)n2-c2ccc(C(=O)NC(C)C)cc2)C1 (configuration not stated),inactive: 96%
11,CCOc1ccccc1NC(=O)C1CCN(S(=O)(=O)c2ccc3[nH]c(=O)oc3c2)CC1,inactive: 89%
12,CCc1cccc(OCC(=O)Nc2ccc(S(=O)(=O)Nc3ncccn3)cc2)c1,active: 43%
13,CC(C)(C)c1ccc(OCc2nc3ccccc3n2CCOc2ccccc2)cc1,active: 10%
14,Cc1cccc(C)c1OCc1nc2c3cnn(-c4ccccc4F)c3ncn2n1,inactive: 109%
15,COc1cccc(NC(=O)CSc2nc3c([nH]c4ccccc43)c(=O)n2-c2cc(C)cc(C)c2)c1,inactive: 89%
16,Cc1cc(C)cc(NC(=O)Cc2csc(C)n2)c1,active: 39%
17,COc1ccc(CNC(=O)c2cc3c(=O)n(Cc4cccnc4)ccc3nc2C)cc1,active: 37%
18,COc1ccccc1CNC(=O)c1cc2c(=O)oc3ccc(C)cc3c2s1,inactive: 65%
19,COc1ccccc1CCNC(=O)Cc1ccc(NC(=O)N2CCSc3ncccc32)cc1,inactive: 66%

row,Structure (SMILES),survival
1,CCOC(=O)c1ccccc1NC(=O)CN(c1cccc(C)c1C)S(=O)(=O)c1ccccc1,inactive: 144%
2,Cc1ccc(-n2c(=O)c3c4c(sc3n(Cc3cc(=O)n5cc(Cl)ccc5n3)c2=O)CCC4)cc1C,inactive: 169%
3,CN(C)S(=O)(=O)c1ccc(S(=O)(=O)N2CCCC(C(=O)NC(C)(C)C)C2)cc1 (configuration not stated),inactive: 102%
4,CC(=O)N1CCCc2cc(S(=O)(=O)N3CCCC(C(=O)NCc4ccccc4Cl)C3)ccc21 (configuration not stated),inactive: 95%
5,O=C(Cn1c(=O)n(CCc2ccccc2)c(=O)c2cccnc21)Nc1ccc(F)cc1,inactive: 64%
6,CCN(C1CCCCC1)S(=O)(=O)c1ccc(S(=O)(=O)NC2CC2)cc1,inactive: 90%
7,CCC(=O)N1CCc2cc(S(=O)(=O)NC(C(=O)NCCc3ccc(OC)c(OC)c3)C(C)C)ccc21 (configuration not stated),inactive: 129%
8,Cc1cc(C)c(NC(=O)c2nc3ccccc3nc2N2CCCCC2)c(C)c1,inactive: 90%
9,COc1cc(NC(=O)C2CCN(C(=O)c3sc4nc[nH]c(=O)c4c3C)CC2)cc(OC)c1OC,inactive: 87%
10,CC1=NN(C(=S)c2ccccc2)C(C)(O)C1 (configuration not stated),inactive: 79%
11,O=C(CCS(=O)(=O)c1cc(Br)cc2c1N(C(=O)C1CC1)CC2)N1CCN(c2cccc(Cl)c2)CC1,inactive: 91%
12,COc1ccc(-c2nc3ccccc3n3c(-c4cccc(C)c4)c4c(=O)n(C)c(=O)n(C)c4c23)cc1OC,inactive: 69%
13,CCC(C)NC(=O)c1c(C)oc2ncn(CC(C)C)c(=O)c12 (configuration not stated),inactive: 79%
14,O=C(O)CNC(=O)c1sc2ccccc2c1Cl,inactive: 84%
15,CC(C)OCCCNC(=O)C(=O)Nc1c2c(nn1-c1ccccc1)CS(=O)(=O)C2,active: -5%
16,CCc1ccccc1NS(=O)(=O)c1ccc2nc(-c3ccccc3)[nH]c2c1,inactive: 86%
17,O=C(O)c1ccc(-c2ccc(/C=N/N3C(=O)C4C(C3=O)C3C=CC4C34CC4)o2)cc1 (configuration not stated),inactive: 91%
18,Cc1ccc(N2C(=O)c3n[nH]c(C)c3C2c2ccc(Cl)cc2)cc1 (configuration not stated),active: 6%
19,Cc1cc(C)cc(NC(=O)CSc2oc(-c3ccccc3)nc2S(=O)(=O)c2ccc(Cl)cc2)c1,inactive: 73%

row,Structure (SMILES),survival
1,CCOC(=O)c1ccccc1NC(=O)Cn1ncc2c1-c1ccccc1OC2,inactive: 73%
2,CCOC(=O)c1[nH]c2c(c1Cc1ccccc1OC)C(=O)CC(c1ccc(OC)cc1)C2 (configuration not stated),inactive: 87%
3,Cc1ccccc1CSc1nnc2[nH]c(=O)cc(-c3ccccc3)n12,inactive: 67%
4,CCc1ccc(-n2c(=O)c3c4c(sc3n(Cc3cc(=O)n5c(C)cccc5n3)c2=O)CCC4)cc1,inactive: 133%
5,O=C(Cc1ccc(F)cc1)N/N=C/c1ccc(-c2ccc(Cl)c(C(=O)O)c2)o1,inactive: 95%
6,Cc1ccc(NC(=O)Cn2nc(C(F)(F)F)c3c2CCCC3)cc1C,inactive: 63%
7,CC1CCc2nc3ncn(Cc4ccc(Cl)cc4)c(=O)c3cc2C1 (configuration not stated),inactive: 85%
8,Cc1ccc2nc(-c3ccc(Cl)c(NC(=O)c4ccc5c(c4)OCCO5)c3)oc2c1,inactive: 71%
9,Cc1nnc(NCc2ccc(Cl)cc2)c2c1nnn2Cc1ccc(F)cc1,inactive: 79%
10,CCCCOc1ccc(C(=O)Nc2ccc(S(=O)(=O)Nc3nc(C)cc(C)n3)cc2)cc1,inactive: 60%
11,COC(=O)c1ccccc1NC(=O)c1cc(-c2ccc(Cl)cc2)on1,inactive: 73%
12,NC(=S)N/N=C/c1ccc(Sc2cccc3cccnc23)o1,inactive: 104%
13,O=C(/C=C/c1ccccc1)C1=C(O)C(=O)N(CCO)C1c1ccc2c(c1)OCO2 (configuration not stated),inactive: 79%
14,O=C(Cn1nc(-c2ccccc2)c2cnc3ccccc3c21)Nc1ccccc1,inactive: 76%
15,Cc1ccc(Cn2nnc3sc4c(c3c2=O)CCC(C)C4)cc1 (configuration not stated),active: 54%
16,CCC(=O)N1CCc2cc(CNS(=O)(=O)c3c(C)cc(C)cc3C)ccc21,inactive: 79%
17,Cc1cc(C)nc(NS(=O)(=O)c2ccc(NC(=O)c3ccccc3O)cc2)n1,inactive: 139%
18,CCCCOc1ccc(C(=O)N2CC(=O)Nc3ccc(Br)cc3C2c2ccc(F)cc2)cc1 (configuration not stated),active: 39%
19,COc1ccc2c(Sc3ccccc3)c(C(=O)NCC(C)c3ccccc3)[nH]c2c1 (configuration not stated),inactive: 84%
